# Assay results published in the supplement of paper PMC9135407.
# Where “and” joins values, the source holds several entries; their conditions need not be identical. Equal entries are not always repeated. Structures can show the parent of a compound that is named as a salt. Hit rate of the full screen: of about 5,800 compounds, about 620 (11%) showed activity.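 How the source made its calls: active = score above a cut-off or among the top three wells of a plate; in these data no inactive exceeds 0.85.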 The entries are a selection whose mix differs from that of the whole data set.
# Test system: primary human hepatic stellate cells (donor 1)
# Assay: scaled lipid accumulation score (0 = DMSO-like, 1 = nortriptyline-like); higher = stronger HSC inactivation (lipid re-accumulation), active = hit call of the paper
# Conditions: 48 h
# [1] = library stock concentration: 10 mM
# [2] = library stock concentration: 3.33 mM
# [3] = library stock concentration: 80 uM
# [4] = library stock concentration: 400 uM
# [5] = library stock concentration: 2 mM
# [6] = library stock concentration: 6.2 mM
structure (smiles),measurement,setting,value
CC/C=C/C[C@H](O)/C=C/[C@H]1[C@H](O)CC(=O)[C@@H]1C/C=C\CCCC(=O)O [17-trans Prostaglandin E3],scaled lipid accumulation score,library stock concentration: 1 mM,inactive: ≤ 0
C[C@@H]1C[C@H]2[C@@H]3CCC4=CC(=O)C=C[C@]4(C)[C@@]3(F)[C@@H](O)C[C@]2(C)[C@H]1C(=O)CO,scaled lipid accumulation score,[1],inactive: ≤ 0
CCN(CC)CCOCCOC(=O)C1(c2ccccc2)CCCC1 [Carbetapentane citrate],scaled lipid accumulation score,,inactive: 0.595
same,scaled lipid accumulation score,[1],inactive: 0.72 and inactive: 0.014 and inactive: 0.411
CCN(CC)CCOCCOC(=O)C1(c2ccccc2)CCCC1 [Pentoxyverine Citrate],scaled lipid accumulation score,[2],inactive: ≤ 0
same,scaled lipid accumulation score,[1],inactive: 0.424
COc1cc(OC)c2ccc(=O)oc2c1 [Citropten],scaled lipid accumulation score,[1],inactive: ≤ 0
CNC(=O)c1ccc(N2C(=S)N(c3ccc(C#N)c(C(F)(F)F)c3)C(=O)C2(C)C)cc1F [Enzalutamide],scaled lipid accumulation score,[3],inactive: ≤ -0.016
same,scaled lipid accumulation score,[4],inactive: ≤ -0.016
same,scaled lipid accumulation score,[5],inactive: ≤ -0.016
same,scaled lipid accumulation score,[1],inactive: ≤ -0.016
CNC(=O)c1ccc(N2C(=S)N(c3ccc(C#N)c(C(F)(F)F)c3)C(=O)C2(C)C)cc1F [Enzalutamide (MDV3100)],scaled lipid accumulation score,[2],inactive: 0.025
same,scaled lipid accumulation score,[1],inactive: ≤ 0
O=C(CCBr)N1CCN(C(=O)CCBr)CC1 [Pipobroman],scaled lipid accumulation score,[1],inactive: ≤ -0.027
CCCCC1C(=O)N(c2ccccc2)N(c2ccc(O)cc2)C1=O (stereo not given) [Oxyphenbutazone],scaled lipid accumulation score,,inactive: 0.3
same,scaled lipid accumulation score,[6],inactive: 0.785
same,scaled lipid accumulation score,[1],inactive: ≤ 0
N[C@H]1CONC1=O [(S)-(-)-Cycloserine],scaled lipid accumulation score,,inactive: ≤ 0
N[C@H]1CONC1=O [L-Cycloserine],scaled lipid accumulation score,[1],inactive: 0.082
N[C@H]1CONC1=O,scaled lipid accumulation score,[1],inactive: ≤ 0
COc1cc(OC)c(NC(=O)Nc2cc(C)on2)cc1Cl,scaled lipid accumulation score,[2],inactive: ≤ 0
same,scaled lipid accumulation score,[1],inactive: ≤ 0 and inactive: 0.398
CCCc1ccc(OCC(=O)N(Cc2nc(-c3cccnc3)no2)C(C)C)cc1,scaled lipid accumulation score,[2],inactive: ≤ -0.009
same,scaled lipid accumulation score,[1],inactive: 0.353
CC(C)NCCCn1c(Sc2cc3c(cc2I)OCO3)nc2c(N)ncnc21,scaled lipid accumulation score,[1],active: 0.881
C[C@H]1O[C@@H](O[C@H]2[C@@H](O)C[C@H](O[C@H]3[C@@H](O)C[C@H](O[C@H]4CC[C@]5(C)C6CC[C@]7(C)[C@@H](C8=CC(=O)OC8)CC[C@]7(O)C6CC[C@@H]5C4)O[C@@H]3C)O[C@@H]2C)C[C@H](O)[C@@H]1O (stereo not given in full) [Digitoxin],scaled lipid accumulation score,library stock concentration: 2.6 mM,active: 1.2
CC(=O)Nc1ccc(OC(=O)c2ccccc2O)cc1 [Acetaminosalol],scaled lipid accumulation score,[1],inactive: ≤ 0
COc1cc2nc(N3CCN(C(=O)C4COc5ccccc5O4)CC3)nc(N)c2cc1OC (stereo not given) [Doxazosin mesylate],scaled lipid accumulation score,,inactive: ≤ 0
same,scaled lipid accumulation score,library stock concentration: 4.4 mM,inactive: 0.151
same,scaled lipid accumulation score,[1],inactive: 0.85
COc1cc2nc(N3CCN(C(=O)C4COc5ccccc5O4)CC3)nc(N)c2cc1OC (stereo not given) [Doxazosin],scaled lipid accumulation score,[1],inactive: 0.539
COc1cc2nc(N3CCN(C(=O)C4COc5ccccc5O4)CC3)nc(N)c2cc1OC (stereo not given) [Doxazosin Mesylate],scaled lipid accumulation score,[2],inactive: ≤ 0
same,scaled lipid accumulation score,[1],inactive: 0.473
N#C/C(=C(/N)Sc1ccc(N)cc1)c1ccccc1C(F)(F)F,scaled lipid accumulation score,[2],inactive: ≤ 0
same,scaled lipid accumulation score,[1],inactive: ≤ 0 and inactive: 0.014
O=c1c(O)c(-c2ccc(O)cc2)oc2cc(O)cc(O)c12 [Kaempferol],scaled lipid accumulation score,,inactive: ≤ 0
same,scaled lipid accumulation score,[2],inactive: 0.087
same,scaled lipid accumulation score,[1],inactive: 0.173 and inactive: 0.109
C=C/C(C)=C/[C@@]1(C)SC(=O)C(C)=C1O [Thiolactomycin],scaled lipid accumulation score,[1],inactive: 0.146
CCOC(=O)Nc1nc2ccccc2[nH]1 [Lobendazole],scaled lipid accumulation score,library stock concentration: 9.7 mM,inactive: ≤ 0
CC1(C)Cc2c(-c3ccccc3)c(-c3ccc(Cl)cc3)c(CC(=O)O)n2C1 [Licofelone],scaled lipid accumulation score,[2],inactive: ≤ 0
same,scaled lipid accumulation score,[1],inactive: ≤ 0
O=C(/C=C/c1cccc(S(=O)(=O)Nc2ccccc2)c1)NO [Belinostat],scaled lipid accumulation score,[3],inactive: ≤ 0
same,scaled lipid accumulation score,[4],inactive: ≤ 0
same,scaled lipid accumulation score,[5],inactive: 0.109
same,scaled lipid accumulation score,[1],inactive: 0.445
O=C(/C=C/c1cccc(S(=O)(=O)Nc2ccccc2)c1)NO [Belinostat (PXD101)],scaled lipid accumulation score,[2],inactive: 0.658
same,scaled lipid accumulation score,[1],inactive: 0.261
NC[C@H]1O[C@H](O[C@H]2[C@H](O)[C@@H](O[C@H]3O[C@H](CO)[C@@H](O)[C@H](N)[C@H]3O)[C@H](N)C[C@@H]2N)[C@H](N)C[C@@H]1O [Tobramycin],scaled lipid accumulation score,,inactive: ≤ 0
C=CCOc1ccccc1OCC(O)CNC(C)C (stereo not given) [Oxprenolol hydrochloride],scaled lipid accumulation score,,inactive: ≤ 0
O=C(O)c1ccc[n+]([O-])c1,scaled lipid accumulation score,[1],inactive: 0.036
Cc1c(N)c(=O)n(-c2ccccc2)n1C [Ampyrone],scaled lipid accumulation score,,inactive: 0.084
Nc1cc2c(ncn2CCOCP(=O)(O)O)c(=O)[nH]1 [PMEG hydrate],scaled lipid accumulation score,[1],inactive: ≤ -0.055
COc1ccc2c(c1)c(CC(=O)O)c(C)n2C(=O)c1ccccc1 [1-benzoyl-5-methoxy-2-methylindole-3-acetic acid],scaled lipid accumulation score,[1],inactive: 0.062
"CN1C(=O)/C(=C2\Nc3ccccc3\C2=N\O)c2ccc(Br)cc21 [GSK-3 Inhibitor IX, Control, MeBIO]",scaled lipid accumulation score,[2],active: 1.07
CCn1c(=O)c2c(nc(/C=C/c3ccc(OC)c(OC)c3)n2C)n(CC)c1=O [Istradefylline],scaled lipid accumulation score,[2],inactive: 0.09
same,scaled lipid accumulation score,[1],inactive: 0.219
CCCn1c(=O)c(C)cn2nc(N)nc12,scaled lipid accumulation score,[1],inactive: ≤ 0 and inactive: 0.03
O=C1Nc2ccc(Br)cc2/C1=C/c1cc2c([nH]1)CCCC2 [VEGF Receptor 2 Kinase Inhibitor II],scaled lipid accumulation score,[2],inactive: 0.454
"Cc1ccc(OCC(O)C(C)NC(C)C)c2c1CCC2 (stereo not given) [ICI-118,551 hydrochloride]",scaled lipid accumulation score,[1],inactive: 0.575
CN([C@@H](Cc1ccc(OS(=O)(=O)c2cccc3cnccc23)cc1)C(=O)N1CCN(c2ccccc2)CC1)S(=O)(=O)c1cccc2cnccc12,scaled lipid accumulation score,[3],inactive: ≤ 0
same,scaled lipid accumulation score,[4],inactive: ≤ 0
same,scaled lipid accumulation score,[5],inactive: ≤ 0
same,scaled lipid accumulation score,[1],inactive: 0.021
O=C(O)C1=CC(=C(c2ccc(O)c(C(=O)O)c2)c2ccc(O)c(C(=O)O)c2)C=CC1=O [Aurintricarboxylic acid],scaled lipid accumulation score,[1],inactive: 0.544
CC1=CC(=O)c2ccccc2C1=O [Menadione],scaled lipid accumulation score,,active: 0.873
c1ccc2cc(C3=NCCN3)ncc2c1 [BU 226 hydrochloride],scaled lipid accumulation score,[1],inactive: ≤ -0.006
COc1ccc(N(C(=O)Nc2c(C)cccc2C)c2cc(Nc3ccc(N4CCN(C)CC4)cc3)ncn2)c(OC)c1,scaled lipid accumulation score,[3],inactive: ≤ -0.016
same,scaled lipid accumulation score,[4],inactive: 0.184
same,scaled lipid accumulation score,[5],inactive: 0.849
C[C@@H]1C/C=C/C=C/C=C/C=C/[C@H](O[C@@H]2O[C@H](C)[C@@H](O)[C@H](N)[C@@H]2O)C[C@@H]2O[C@](O)(C[C@@H](O)C[C@H]3O[C@@H]3/C=C/C(=O)O1)C[C@H](O)[C@H]2C(=O)O [Natamycin],scaled lipid accumulation score,library stock concentration: 3 mM,inactive: ≤ 0
same,scaled lipid accumulation score,[2],inactive: ≤ 0
same,scaled lipid accumulation score,[1],inactive: 0.082
CCC1=C[C@H]2CN(C1)Cc1c([nH]c3ccccc13)[C@@](C(=O)OC)(c1cc3c(cc1OC)N(C)[C@H]1[C@@](O)(C(=O)OC)[C@H](OC(C)=O)[C@]4(CC)C=CCN5CC[C@]31[C@@H]54)C2.O=C(O)C(O)C(O)C(=O)O,scaled lipid accumulation score,[1],active: 1.52
O=c1ccn([C@@H]2O[C@H](COP(=O)(O)OP(=O)(O)O)[C@@H](O)[C@H]2O)c(=O)[nH]1 [Uridine 5'-diphosphate sodium],scaled lipid accumulation score,[1],inactive: ≤ 0
CC(C(O)c1ccc(O)cc1)N1CCC(Cc2ccccc2)CC1 (stereo not given) [Ifenprodil],scaled lipid accumulation score,library stock concentration: 6.1 mM,inactive: 0.223
same,scaled lipid accumulation score,library stock concentration: 9.6 mM,inactive: 0.096
CC(C(O)c1ccc(O)cc1)N1CCC(Cc2ccccc2)CC1 (stereo not given) [Ifenprodil Tartrate],scaled lipid accumulation score,[2],inactive: ≤ 0
same,scaled lipid accumulation score,[1],inactive: 0.077
CC(C(O)c1ccc(O)cc1)N1CCC(Cc2ccccc2)CC1 (stereo not given) [Ifenprodil hemitartrate],scaled lipid accumulation score,[1],inactive: 0.45
CC(C(O)c1ccc(O)cc1)N1CCC(Cc2ccccc2)CC1 (stereo not given) [Ifenprodil tartrate],scaled lipid accumulation score,,inactive: 0.252
CC(C)[C@H](N)C(=O)OCCOCn1cnc2c(=O)nc(N)[nH]c21 [Valaciclovir HCl],scaled lipid accumulation score,[2],inactive: ≤ 0
same,scaled lipid accumulation score,[1],inactive: ≤ 0
CC(C)[C@H](N)C(=O)OCCOCn1cnc2c(=O)nc(N)[nH]c21 [Valacyclovir hydrochloride],scaled lipid accumulation score,[1],inactive: ≤ -0.027
CC(C)[C@H](N)C(=O)OCCOCn1cnc2c(=O)nc(N)[nH]c21 [Valaciclovir],scaled lipid accumulation score,[6],inactive: ≤ 0
CC(C)[C@H](N)C(=O)OCCOCn1cnc2c(=O)nc(N)[nH]c21,scaled lipid accumulation score,[1],inactive: ≤ 0
CC[C@H](NC(=O)[C@H](C)NC)C(=O)N1C[C@@H](O)C[C@H]1Cc1c(-c2[nH]c3cc(F)ccc3c2C[C@@H]2C[C@H](O)CN2C(=O)[C@H](CC)NC(=O)[C@H](C)NC)[nH]c2cc(F)ccc12 [Birinapant],scaled lipid accumulation score,[2],inactive: ≤ 0
same,scaled lipid accumulation score,[1],inactive: ≤ -0.001
CC(C)N(CC[C@H](c1ccccc1)c1cc(CO)ccc1O)C(C)C,scaled lipid accumulation score,[2],inactive: 0.012
same,scaled lipid accumulation score,[1],inactive: ≤ 0
COC(=O)N/N=C/c1c[n+]([O-])c2ccccc2[n+]1[O-] [Carbadox],scaled lipid accumulation score,library stock concentration: 7.6 mM,inactive: 0.074 and inactive: ≤ 0
same,scaled lipid accumulation score,[1],inactive: 0.05
CN1CCN(c2nc3cc(C(F)(F)F)ccc3n3cccc23)CC1.O=C(O)/C=C\C(=O)O,scaled lipid accumulation score,[1],active: 0.974
CN(C(=O)CN(CCO)CC(=O)N(C)C(C)(C)Cc1ccccc1)C(C)(C)Cc1ccccc1 [Oxethazaine],scaled lipid accumulation score,,inactive: 0.207
same,scaled lipid accumulation score,[1],inactive: ≤ -0.027
